# Some of the results follow. Single values are uncertain, as repeats are few or missing.
# Key:
# Test in all cases: cell count relative to DMSO control; melanoma cells; higher = more viable cells
# Conditions in all cases: library dose: low library concentration; 72 h
# [1] = test system: COLO792
# [2] = test system: COLO800
# [3] = test system: COLO829
# [4] = test system: G361
# [5] = test system: IPC-298
# [6] = test system: IST-MEL1
# [7] = test system: LB2518-MEL
# [8] = test system: LOXIMVI
# [9] = test system: MEL-HO
# 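Also: cell number obtained by counting DAPI-stained nuclei in high-throughput microscope images with image analysis software, screen run in 1,536-well plates.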
SMILES,cell count [1] [%],cell count [2] [%],cell count [3] [%],cell count [4] [%],cell count [5] [%],cell count [6] [%],cell count [7] [%],cell count [8] [%],cell count [9] [%]
"CC1(C)CCC(c2ccc(Cl)cc2)=C(CN2CCN(c3ccc(C(=O)NS(=O)(=O)c4ccc(N[C@H](CCN5CCOCC5)CSc5ccccc5)c(S(=O)(=O)C(F)(F)F)c4)cc3)CC2)C1 + O=c1cc(-c2cccc3c2Sc2ccccc2S3)oc(N2CCOCC2)c1 [KU55933] (first compound 0.4 µM, partner dose 1 µM)",57.7,73.6,89.8,75.9,97.8,75.6,108,59.8,76.2
"O=C(/C=C/c1cccnc1)NCCCCC1CCN(C(=O)c2ccccc2)CC1 + Cc1ccc(NC(=O)c2cccc(N(C)C)c2)cc1NC(=O)c1ccc(O)cc1 [ZM336372] (first compound 0.01 µM, partner dose 2 µM)",54.1,42.7,77.1,12.9,36,69.5,74,76.9,36.4
"O=C(/C=C/c1cccnc1)NCCCCC1CCN(C(=O)c2ccccc2)CC1 + CC(C)(C)c1cnc(CSc2cnc(NC(=O)C3CCNCC3)s2)o1 [SNS-032] (first compound 0.01 µM, partner dose 0.01 µM)",50,25,75.6,9.96,41.8,78.6,90.3,96.5,45.9
"CC1(C)CCC(c2ccc(Cl)cc2)=C(CN2CCN(c3ccc(C(=O)NS(=O)(=O)c4ccc(N[C@H](CCN5CCOCC5)CSc5ccccc5)c(S(=O)(=O)C(F)(F)F)c4)cc3)CC2)C1 + O=S(=O)(c1ccccc1)N(CC(F)(F)F)c1ccc(C(O)(C(F)(F)F)C(F)(F)F)cc1 [T0901317] (first compound 0.4 µM, partner dose 1.4 µM)",67.5,83.3,81.3,70.8,90.6,73.2,92,43.2,89.5
"O=C(/C=C/c1cccnc1)NCCCCC1CCN(C(=O)c2ccccc2)CC1 + COc1cc(Nc2ncc(F)c(Nc3ccc4c(n3)NC(=O)C(C)(C)O4)n2)cc(OC)c1OC [Tamatinib] (first compound 0.01 µM, partner dose 0.4 µM)",44.3,22,67.5,13.8,45.6,67.3,71.8,67.9,37.4
"CC1(C)CCC(c2ccc(Cl)cc2)=C(CN2CCN(c3ccc(C(=O)NS(=O)(=O)c4ccc(N[C@H](CCN5CCOCC5)CSc5ccccc5)c(S(=O)(=O)C(F)(F)F)c4)cc3)CC2)C1 + Cc1ccc(NC(=O)c2cccc(N(C)C)c2)cc1NC(=O)c1ccc(O)cc1 [ZM336372] (first compound 0.4 µM, partner dose 2 µM)",84.4,64.3,105,77.9,78.2,90.9,57,36.1,71.5
"O=C(/C=C/c1cccnc1)NCCCCC1CCN(C(=O)c2ccccc2)CC1 + NC(=O)Nc1cc(-c2cccc(F)c2)sc1C(=O)N[C@H]1CCCNC1 [AZD7762] (first compound 0.01 µM, partner dose 0.02 µM)",47.8,26.1,81.2,11,44,77.3,113,90,39.8
"CC1(C)CCC(c2ccc(Cl)cc2)=C(CN2CCN(c3ccc(C(=O)NS(=O)(=O)c4ccc(N[C@H](CCN5CCOCC5)CSc5ccccc5)c(S(=O)(=O)C(F)(F)F)c4)cc3)CC2)C1 + NC(=O)Nc1cc(-c2cccc(F)c2)sc1C(=O)N[C@H]1CCCNC1 [AZD7762] (first compound 0.4 µM, partner dose 0.02 µM)",64.6,70,89.7,87,100,84.9,101,68.4,83.6
"O=C(/C=C/c1cccnc1)NCCCCC1CCN(C(=O)c2ccccc2)CC1 + Cc1cc(N2CCOCC2)cc2[nH]c(-c3c(NC[C@@H](O)c4cccc(Cl)c4)cc[nH]c3=O)nc12 [BMS536924] (first compound 0.01 µM, partner dose 0.2 µM)",50,13.3,75.1,10.8,38,69.7,78.4,65.5,36.4
"Cc1ccc(Nc2nccc(N(C)c3ccc4c(C)n(C)nc4c3)n2)cc1S(N)(=O)=O [Pazopanib] + CN(C)S(=O)(=O)c1ccc2c(c1)/C(=C/c1cc3c([nH]1)CCCC3)C(=O)N2 [SU6656] (first compound 0.4 µM, partner dose 0.4 µM)",98.7,111,103,95.8,77.1,96.5,85.2,124,90.6
"Cc1ccc(Nc2nccc(N(C)c3ccc4c(C)n(C)nc4c3)n2)cc1S(N)(=O)=O [Pazopanib] + COc1ccc(-c2ccc3c(N4CCOCC4)nc(N4C[C@@H](C)O[C@@H](C)C4)nc3n2)cc1CO [KU0063794] (first compound 0.4 µM, partner dose 0.02 µM)",113,106,107,87.4,85.3,99.8,92.2,91.6,94.1
"O=C(/C=C/c1cccnc1)NCCCCC1CCN(C(=O)c2ccccc2)CC1 + c1cc(-c2cnn3cc(-c4ccc(OCCN5CCCCC5)cc4)cnc23)ccn1 [Dorsomorphin] (first compound 0.01 µM, partner dose 0.4 µM)",62.5,25.8,89.2,14.3,43.5,77.1,98.9,77,62.7
"O=C(/C=C/c1cccnc1)NCCCCC1CCN(C(=O)c2ccccc2)CC1 + O=C(O)c1ccc(-c2c[nH]c3ncc(-c4ccccc4)cc23)cc1C1CCCC1 [GSK650394] (first compound 0.01 µM, partner dose 0.16 µM)",51.4,24.8,58.9,7.92,43.8,76.6,81.7,121,49.4
"Cc1ccc(Nc2nccc(N(C)c3ccc4c(C)n(C)nc4c3)n2)cc1S(N)(=O)=O [Pazopanib] + Cc1cc([N+](=O)[O-])ccc1NS(=O)(=O)c1cc(Cl)ccc1Cl [FH535] (first compound 0.4 µM, partner dose 1 µM)",97.2,107,99.6,86,73.6,86.7,81.3,153,96.5
"O=C(/C=C/c1cccnc1)NCCCCC1CCN(C(=O)c2ccccc2)CC1 + N#Cc1c(O)c2c(-c3ccc(-c4ccccc4O)cc3)csc2[nH]c1=O [A769662] (first compound 0.01 µM, partner dose 2 µM)",51.1,33.9,55.2,6.81,40.2,69.8,90.4,67.6,68.2
"CC1(C)CCC(c2ccc(Cl)cc2)=C(CN2CCN(c3ccc(C(=O)NS(=O)(=O)c4ccc(N[C@H](CCN5CCOCC5)CSc5ccccc5)c(S(=O)(=O)C(F)(F)F)c4)cc3)CC2)C1 + c1cc(-c2cnn3cc(-c4ccc(OCCN5CCCCC5)cc4)cnc23)ccn1 [Dorsomorphin] (first compound 0.4 µM, partner dose 0.4 µM)",53.9,64.6,88.4,71.5,101,71.7,83.6,59.3,87.6
"O=C(/C=C/c1cccnc1)NCCCCC1CCN(C(=O)c2ccccc2)CC1 + COC(=O)c1sccc1S(=O)(=O)Nc1ccc(Nc2ccccc2)cc1OC [GSK0660] (first compound 0.01 µM, partner dose 1 µM)",50.3,34.1,71.4,9.58,35,66.1,94.1,76.6,72
"CC1(C)CCC(c2ccc(Cl)cc2)=C(CN2CCN(c3ccc(C(=O)NS(=O)(=O)c4ccc(N[C@H](CCN5CCOCC5)CSc5ccccc5)c(S(=O)(=O)C(F)(F)F)c4)cc3)CC2)C1 + Cn1cncc1[C@@](N)(c1ccc(Cl)cc1)c1ccc2c(c1)c(-c1cccc(Cl)c1)cc(=O)n2C [tipifarnib] (first compound 0.4 µM, partner dose 0.01 µM)",55.6,64.6,89.8,72.5,89.3,56.8,69.3,22.4,70.5
"O=C(/C=C/c1cccnc1)NCCCCC1CCN(C(=O)c2ccccc2)CC1 + O=C(CCCCCCC(=O)Nc1ccccc1)NO [vorinostat] (first compound 0.01 µM, partner dose 0.08 µM)",63.7,38.1,91.6,17,52.7,71.4,93,88.4,54.2
"O=C(/C=C/c1cccnc1)NCCCCC1CCN(C(=O)c2ccccc2)CC1 + COc1ccc2c(c1)CCC1C2CCC2(C)C(NCCCCCCN3C(=O)C=CC3=O)CCC12 [U73122] (first compound 0.01 µM, partner dose 0.4 µM)",49.7,23.1,69.7,8.12,43.1,70.3,79.2,91.1,44.4
"CC1(C)CCC(c2ccc(Cl)cc2)=C(CN2CCN(c3ccc(C(=O)NS(=O)(=O)c4ccc(N[C@H](CCN5CCOCC5)CSc5ccccc5)c(S(=O)(=O)C(F)(F)F)c4)cc3)CC2)C1 + Oc1cc(-c2nc(-c3ccccc3)[nH]c2-c2ccncc2)ccc1Cl [L779450] (first compound 0.4 µM, partner dose 0.2 µM)",77.2,63.3,99.2,77.5,84,72.6,70.5,27.9,75.1
